Experimental data taken from paper PMC5892938.
This is one part of the list. At the low end of the ranking, values are background and their order means little.
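Note: DESeq read counts versus GST-SBP nonspecific binding control pulldown.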

What follows are sequences tested against GST-SBP-SLBP (stem-loop binding protein) (UniProt Q14493) (assay: targeted RNA Bind-n-Seq). Conditions: RBNS binding buffer: 25 mM Tris pH 7.5, 150 mM KCl, 3 mM MgCl2, 0.1% Tween, 0.5 mg/mL BSA, 1 mM DTT; 27 nM protein, 750 pM RNA pool; temperature not stated; high values mean tight binding.
In the case of “GGUCACGUCUCAAUCAACUCUCUCGAGGGGGGGAAAACCCCUUUACCCUCUUUCUCAACAGCUCGCAGUCAAG”, the binding signal (log2 fold change) is reported as 0.14.
For “GGUCACGUCUCAAUCAACUCUUCUUCAGGAGUUUUCUCCUGCAAUCUCAACAGCUCGCAGUCAAG”, the binding signal (log2 fold change) was 0.1.
“GGUCACGUCUCAAUCAACUCAUACGAGGGGGGGAAAACCCCUUUGCCCUCAAUAUCAACAGCUCGCAGUCAAG” was tested, and the binding signal (log2 fold change) was -0.239.
In the case of “GGUCACGUCUCAAUCAACUCUAACGAGGGGGGGAAAACCCCUUUACCCUCACUUUCAACAGCUCGCAGUCAAG”, the binding signal (log2 fold change) is reported as 0.232.
With “GGUCACGUCUCAAUCAACUCCCACGAGGGGGGGAAAACCCCUUUACCCUCAACCUCAACAGCUCGCAGUCAAG” the binding signal (log2 fold change) was 0.335.
“GGUCACGUCUCAAUCAACUCUUUUCCCAGGGAAAUCCCUGGCUAUCUCAACAGCUCGCAGUCAAG” was tested, and the binding signal (log2 fold change) was 0.0673.
Work on “GGUCACGUCUCAAUCAACUCAUCCUCAGGAGUUUGCUCCUGUAUAUUCAACAGCUCGCAGUCAAG” yielded a binding signal (log2 fold change) of 0.152.
With “GGUCACGUCUCAAUCAACUCUAUCCCAGGAGUUUUCUCCUGCAUAUUCAACAGCUCGCAGUCAAG” the binding signal (log2 fold change) was -0.0657.
For “GGUCACGUCUCAAUCAACUCUCAAGAGGGGGGGAAAACCCCUUUACCCUCACCGUCAACAGCUCGCAGUCAAG”, the binding signal (log2 fold change) was -0.187.
Sequence “GGUCACGUCUCAAUCAACUCACAAGAGGGGGGGAAAACCCCUUUGCCCUCACCUUCAACAGCUCGCAGUCAAG” has a binding signal (log2 fold change) of 0.228.
Sequence “GGUCACGUCUCAAUCAACUCAUCUCCCAGGGAAAGCCCUGGUAUUUUCAACAGCUCGCAGUCAAG” has a binding signal (log2 fold change) of 0.263.
In the case of “GGUCACGUCUCAAUCAACUCAUUCUCCAGGGAAAUCCCUGGUAAUUUCAACAGCUCGCAGUCAAG”, the binding signal (log2 fold change) is reported as -0.0744.
With “GGUCACGUCUCAAUCAACUCAACAGAGGGGGGGAAAACCCCUUUACCCUCAUCGUCAACAGCUCGCAGUCAAG” the binding signal (log2 fold change) was -0.455.
“GGUCACGUCUCAAUCAACUCAAAAGAGGGGGGGAAAACCCCUUUACCCUCAACUUCAACAGCUCGCAGUCAAG” was tested, and the binding signal (log2 fold change) was -0.277.
For “GGUCACGUCUCAAUCAACUCUAGUCCAGGAGUUUACUCCUGCAUAUUCAACAGCUCGCAGUCAAG”, the binding signal (log2 fold change) was 0.0192.
With “GGUCACGUCUCAAUCAACUCAUCUUCAGGAGUUUCCUCCUGUAUUUUCAACAGCUCGCAGUCAAG” the binding signal (log2 fold change) was -0.1.
In the case of “GGUCACGUCUCAAUCAACUCGUCUUCAGGAGUUUCCUCCUGCAUUUUCAACAGCUCGCAGUCAAG”, the binding signal (log2 fold change) is reported as 0.145.
Work on “GGUCACGUCUCAAUCAACUCAAUUUCAGGAGUUUUCUCCUGCUAAGUCAACAGCUCGCAGUCAAG” yielded a binding signal (log2 fold change) of 0.047.
“GGUCACGUCUCAAUCAACUCAUUUCCCAGGGAAAGCCCUGGUAUUUUCAACAGCUCGCAGUCAAG” showed a binding signal (log2 fold change) of 0.159.
In the case of “GGUCACGUCUCAAUCAACUCUACUUCAGGAGUUUACUCCUGCAAUCUCAACAGCUCGCAGUCAAG”, the binding signal (log2 fold change) is reported as 0.103.
Work on “GGUCACGUCUCAAUCAACUCUCUAGAGGGGGGGAAAACCCCUUUACCCUCAACAUCAACAGCUCGCAGUCAAG” yielded a binding signal (log2 fold change) of -0.2.
For “GGUCACGUCUCAAUCAACUCAACGCCAGGAGUUUCCUCCUGUAUACUCAACAGCUCGCAGUCAAG”, the binding signal (log2 fold change) was 0.128.
“GGUCACGUCUCAAUCAACUCUUAAGAGGGGGGGAAAACCCCUUUACCCUCAAUUUCAACAGCUCGCAGUCAAG” gave a binding signal (log2 fold change) of -0.121.
“GGUCACGUCUCAAUCAACUCAUCUCCCAGGGAAAGCCCUGGUAAACUCAACAGCUCGCAGUCAAG” showed a binding signal (log2 fold change) of -0.377.
With “GGUCACGUCUCAAUCAACUCUUUUUCCAGGGAAACCCCUGGUUAUUUCAACAGCUCGCAGUCAAG” the binding signal (log2 fold change) was -0.21.
“GGUCACGUCUCAAUCAACUCUUUUCCCAGGGAAAGCCCUGGCUAUGUCAACAGCUCGCAGUCAAG” was tested, and the binding signal (log2 fold change) was -0.00756.
Work on “GGUCACGUCUCAAUCAACUCAUCCCCAGGAGUUUUCUCCUGUAUACUCAACAGCUCGCAGUCAAG” yielded a binding signal (log2 fold change) of 0.0156.
For “GGUCACGUCUCAAUCAACUCAAAAGAGGGGGGGAAAACCCCUUUACCCUCCAUGUCAACAGCUCGCAGUCAAG”, the binding signal (log2 fold change) was -0.293.
“GGUCACGUCUCAAUCAACUCUUCGGAGGGGGGGAAAACCCCUUUACCCUCAUACUCAACAGCUCGCAGUCAAG” gave a binding signal (log2 fold change) of -0.315.
In the case of “GGUCACGUCUCAAUCAACUCUUUCUCCAGGGAAAUCCCUGGCUUACUCAACAGCUCGCAGUCAAG”, the binding signal (log2 fold change) is reported as -0.0721.
“GGUCACGUCUCAAUCAACUCAUAAGAGGGGGGGAAAACCCCUUUACCCUCAAACUCAACAGCUCGCAGUCAAG” was tested, and the binding signal (log2 fold change) was -0.233.
With “GGUCACGUCUCAAUCAACUCCAACGAGGGGGGGAAAACCCCUUUACCCUCUCCAUCAACAGCUCGCAGUCAAG” the binding signal (log2 fold change) was 0.00628.
Sequence “GGUCACGUCUCAAUCAACUCAAUUUCCAGGGAAAUCCCUGGCAUUUUCAACAGCUCGCAGUCAAG” has a binding signal (log2 fold change) of -0.0666.
“GGUCACGUCUCAAUCAACUCAGUUCCCAGGGAAAGCCCUGGCAUUUUCAACAGCUCGCAGUCAAG” gave a binding signal (log2 fold change) of 0.449.
Sequence “GGUCACGUCUCAAUCAACUCAACUCCCAGGGAAACCCCUGGUUUACUCAACAGCUCGCAGUCAAG” has a binding signal (log2 fold change) of 0.0126.
“GGUCACGUCUCAAUCAACUCAUCGUCAGGAGUUUUCUCCUGUAAUUUCAACAGCUCGCAGUCAAG” gave a binding signal (log2 fold change) of -0.153.
